The supplement of paper PMC10498489
Hit rate of the full screen: of about 2,300 compounds, about 330 (14%) showed activity.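 The calls were made as follows: active = median modified Z-score above 1.96; inactive = 1.96 or below.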 The entries are a selection whose mix differs from that of the whole data set.

These molecules were tested on HepG2 Srxn1-GFP reporter cells (+30 nM CDDO-Me) (assay: Srxn1-GFP intensity median modified Z-score relative to plate median; higher = stronger NRF2 / oxidative stress reporter activation, active = hit call of the paper). Settings: 10 µM; exposure time: 24h.
Summary of the method: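 HepG2 Srxn1-GFP BAC reporter cells (20,000 per well, 96-well plates) were co-exposed to an NRF2 activator at 30 nM and compound at 10 μM (≤0.1% DMSO) for 24 h in three replicate plates. After formaldehyde fixation and Hoechst staining, confocal images were analysed per cell for cytoplasmic GFP, excluding images with under 100 cells. The value is the median over replicates of the per-plate modified Z-score of GFP intensity. Scaling used 1.4826 × median absolute deviation.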

SMILES	Srxn1-GFP intensity median modified Z-score
C=CC1=C(C)c2cc3[nH]c(cc4[nH]c(cc5nc(cc1n2)=C(C)C5=CCC(=O)O)c(CCC(=O)O)c4C)c(C)c3=CC [euspeclibcmpd1059]	inactive: 0.562
COc1cc2oc3cc(OC)c(OC)c(C=CC(C)C)c3c(=O)c2c(O)c1CC=C(C)C [euspeclibcmpd1769]	inactive: -0.34
O=C1OCCc2oc(O)cc21 [euspeclibcmpd1348]	active: 33
Cc1cc(=O)oc2cc(O)cc(O)c12 [euspeclibcmpd1994]	inactive: -0.357
CC(=O)Oc1ccccc1C(=O)O [euspeclibcmpd28]	active: 61
CC=C(C(=CC)c1ccc(O)cc1)c1ccc(O)cc1 [euspeclibcmpd91]	active: 13.6
COc1ccc2c(c1)OC/C(=C\c1ccc(OC)c(O)c1)C2=O [euspeclibcmpd1638]	active: 19.3
CC(C(=O)O)c1ccc2c(c1)Cc1cccnc1O2 (stereo not given) [euspeclibcmpd1088]	inactive: -0.515
C[C@H]1COc2c(C3(N)CC3)c(F)cc3c(=O)c(C(=O)O)cn1c23 [euspeclibcmpd1086]	inactive: 0.373
CC(=O)Nc1ccccc1 [euspeclibcmpd1065]	inactive: -0.0812
CC(C)(C(=O)O)c1ccc(C(O)CCCN2CCC(C(O)(c3ccccc3)c3ccccc3)CC2)cc1 (stereo not given) [euspeclibcmpd659]	inactive: -0.123
COc1c2ccoc2c(OC)c2oc(=O)ccc12 [euspeclibcmpd1722]	inactive: -0.26
CN1C(C)(C)CCCC1(C)C [euspeclibcmpd1138]	inactive: -0.0632
CC(CCc1ccccc1)NCC(O)c1ccc(O)c(C(N)=O)c1 (stereo not given) [euspeclibcmpd553]	inactive: 0.0442
Cc1oncc1C(=O)Nc1ccc(C(F)(F)F)cc1 [euspeclibcmpd636]	inactive: 1.63
CC1CC(OC(=O)C(O)c2ccccc2)CC(C)(C)C1 (stereo not given) [euspeclibcmpd1173]	inactive: -0.157
CCCCCCCCCc1ccc(OCCOCCOCCOCCOCCOCCOCCOCCOCCO)cc1 [euspeclibcmpd736]	active: 18.5
COc1c(-c2coc3cc4c(cc3c2=O)CC(OC(C)=O)C(C)(C)O4)ccc2c1C=CC(C)(C)O2 (stereo not given) [euspeclibcmpd1654]	active: 13.6

SMILES	Srxn1-GFP intensity median modified Z-score
Cc1cc2c(cc1S(N)(=O)=O)S(=O)(=O)CCC2 [euspeclibcmpd1275]	inactive: -0.173
CC(=O)NCCc1ccc(O)c(C2C(=O)C(=O)c3c(c(O)c4c(C(=O)O)c(C(=O)O)c(O)cc4c3O)C2=O)c1 (stereo not given) [euspeclibcmpd1580]	inactive: -0.208
OCCOCCN1CCN(C2=Nc3ccccc3Sc3ccccc32)CC1 [euspeclibcmpd710]	inactive: 0.638
Oc1oc(O)c2c1C1CCC2O1 [euspeclibcmpd1748]	active: 3
Cc1ccc2c(Br)cc(Br)c(OC(=O)c3ccccc3)c2n1 [euspeclibcmpd2181]	active: 2.44
Cc1ccc(Nc2c(F)cccc2Cl)c(CC(=O)O)c1 [euspeclibcmpd498]	inactive: 1.17
Fc1ccc(C(c2ccc(F)cc2)N2CCN(C/C=C/c3ccccc3)CC2)cc1 [euspeclibcmpd360]	inactive: -0.527
COc1ccc2oc(-c3ccccc3OC)cc(=O)c2c1 [euspeclibcmpd1670]	active: 3.62
COc1ccc2oc(-c3ccccc3OC)cc(=O)c2c1	inactive: 0.553
N=C(N)c1ccc(OCCCCCOc2ccc(C(=N)N)cc2)cc1 [euspeclibcmpd1040]	active: 12.5
c1ccc2c(Cc3c[nH]c4ccccc34)c[nH]c2c1 [euspeclibcmpd2024]	active: 18.3
CCCc1cc(=O)[nH]c(=S)[nH]1 [euspeclibcmpd255]	inactive: -0.449
COc1ccc(CCN(C)CCCC(C#N)(c2ccc(OC)c(OC)c2)C(C)C)cc1OC (stereo not given) [euspeclibcmpd958]	active: 5.38
Cc1c(NS(=O)(=O)C(C)C)c(=O)n(-c2ccccc2)n1C	inactive: 1.19
CNCCCC1c2ccccc2C=Cc2ccccc21 [euspeclibcmpd899]	inactive: -0.742
COC(=O)C1OC(=O)C2OC23[C@@]1(C)CCC1[C@]2(C)C(C[C@@H](O)[C@]13C)C(C)(C)[C@H](OC(C)=O)C[C@@H]2OC(C)=O (stereo not given in full) [euspeclibcmpd2102]	inactive: -0.135
CC(=O)C1CCC2C3CC(C)=C4CC(=O)CC[C@]4(C)C3[C@@H](O)C[C@]12C (stereo not given in full) [euspeclibcmpd179]	inactive: -0.562
